Experimental findings from article PMC3169550 are described below.

By UniProt entry, the sequences of proteins in these tests, tags left out.
UniProt A2A9T0: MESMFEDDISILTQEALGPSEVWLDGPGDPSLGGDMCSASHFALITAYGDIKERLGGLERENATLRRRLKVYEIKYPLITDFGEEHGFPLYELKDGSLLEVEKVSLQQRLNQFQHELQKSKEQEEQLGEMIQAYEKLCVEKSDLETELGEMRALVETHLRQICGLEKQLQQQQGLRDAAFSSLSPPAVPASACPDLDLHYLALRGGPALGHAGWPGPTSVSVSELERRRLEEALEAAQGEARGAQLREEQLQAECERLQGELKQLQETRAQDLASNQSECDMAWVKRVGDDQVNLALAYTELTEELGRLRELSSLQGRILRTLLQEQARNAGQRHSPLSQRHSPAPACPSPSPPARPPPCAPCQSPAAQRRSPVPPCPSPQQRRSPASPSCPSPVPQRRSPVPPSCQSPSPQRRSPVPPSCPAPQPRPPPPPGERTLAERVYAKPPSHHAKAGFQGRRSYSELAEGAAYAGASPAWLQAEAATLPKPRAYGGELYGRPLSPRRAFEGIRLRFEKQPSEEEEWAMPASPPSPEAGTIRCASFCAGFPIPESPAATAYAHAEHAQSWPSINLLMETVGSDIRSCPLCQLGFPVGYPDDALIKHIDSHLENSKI
UniProt Q9QYP6: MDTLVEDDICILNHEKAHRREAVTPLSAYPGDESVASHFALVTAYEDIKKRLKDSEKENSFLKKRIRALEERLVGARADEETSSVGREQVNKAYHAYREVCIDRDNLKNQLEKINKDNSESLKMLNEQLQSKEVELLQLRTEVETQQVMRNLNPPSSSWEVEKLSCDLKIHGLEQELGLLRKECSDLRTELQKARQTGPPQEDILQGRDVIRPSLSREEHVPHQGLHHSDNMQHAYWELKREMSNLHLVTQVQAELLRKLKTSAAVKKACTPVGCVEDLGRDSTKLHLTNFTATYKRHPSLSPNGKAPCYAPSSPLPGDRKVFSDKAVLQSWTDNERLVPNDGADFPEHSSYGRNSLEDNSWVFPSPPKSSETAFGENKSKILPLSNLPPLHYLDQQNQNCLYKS

Holding throughout (test): co-IP; Myc-tagged TBK1 constructs coexpressed with V5-tagged adaptors in HEK293 cells; Frackelton buffer (10 mM Tris/HCl pH 7.5, 50 mM NaCl, 1% Triton X-100); anti-Myc agarose or anti-V5 agarose, 2 h at 4°C; immunoblotting with anti-Myc and anti-V5
In experiment [1] the target is T1, Myc-tagged TBK1 L704A (murine) (UniProt Q9WUN2).
T1 sequence: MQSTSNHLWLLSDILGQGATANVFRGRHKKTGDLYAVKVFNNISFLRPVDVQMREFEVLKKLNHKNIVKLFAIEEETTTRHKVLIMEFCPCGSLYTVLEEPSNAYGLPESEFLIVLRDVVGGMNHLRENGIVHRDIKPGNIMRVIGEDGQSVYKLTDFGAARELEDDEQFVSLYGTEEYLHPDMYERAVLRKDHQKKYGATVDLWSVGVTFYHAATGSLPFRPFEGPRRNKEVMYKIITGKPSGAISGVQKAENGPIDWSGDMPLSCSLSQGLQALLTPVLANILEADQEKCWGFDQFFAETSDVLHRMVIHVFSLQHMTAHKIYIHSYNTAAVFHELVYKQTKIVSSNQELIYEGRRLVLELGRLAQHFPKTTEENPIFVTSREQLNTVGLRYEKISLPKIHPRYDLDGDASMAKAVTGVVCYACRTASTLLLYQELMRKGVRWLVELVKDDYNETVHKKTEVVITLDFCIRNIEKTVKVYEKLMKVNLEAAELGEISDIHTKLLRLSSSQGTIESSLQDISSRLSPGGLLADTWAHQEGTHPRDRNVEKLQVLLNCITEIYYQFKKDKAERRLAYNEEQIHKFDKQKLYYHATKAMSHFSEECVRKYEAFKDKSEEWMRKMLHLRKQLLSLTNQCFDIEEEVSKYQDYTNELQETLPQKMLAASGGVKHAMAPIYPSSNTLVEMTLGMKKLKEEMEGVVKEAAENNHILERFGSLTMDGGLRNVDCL

Experiment [2] concerns the target T2, Myc-tagged TBK1 K694E (murine) (UniProt Q9WUN2).
T2 sequence: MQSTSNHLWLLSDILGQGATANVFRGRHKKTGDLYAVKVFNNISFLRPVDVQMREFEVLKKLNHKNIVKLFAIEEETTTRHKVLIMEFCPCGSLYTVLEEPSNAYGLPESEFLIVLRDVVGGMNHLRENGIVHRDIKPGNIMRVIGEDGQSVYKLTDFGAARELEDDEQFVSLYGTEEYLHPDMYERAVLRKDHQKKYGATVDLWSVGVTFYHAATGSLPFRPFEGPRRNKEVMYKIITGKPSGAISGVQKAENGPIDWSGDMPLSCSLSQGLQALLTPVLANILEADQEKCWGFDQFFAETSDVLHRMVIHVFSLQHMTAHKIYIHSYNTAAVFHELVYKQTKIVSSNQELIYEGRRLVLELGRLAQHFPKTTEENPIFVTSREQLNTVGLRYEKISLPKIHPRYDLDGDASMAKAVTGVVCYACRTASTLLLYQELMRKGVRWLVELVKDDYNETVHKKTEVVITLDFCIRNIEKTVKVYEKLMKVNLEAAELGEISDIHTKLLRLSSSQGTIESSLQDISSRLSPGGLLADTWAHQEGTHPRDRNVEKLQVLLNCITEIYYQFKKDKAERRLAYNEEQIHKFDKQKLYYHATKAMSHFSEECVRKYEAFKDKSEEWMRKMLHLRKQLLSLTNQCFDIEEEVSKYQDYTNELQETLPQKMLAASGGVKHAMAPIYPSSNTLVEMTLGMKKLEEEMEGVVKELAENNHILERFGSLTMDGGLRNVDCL

Experiment [3] concerns the target T3, Myc-tagged TBK1 N708A (murine) (UniProt Q9WUN2).
T3 sequence: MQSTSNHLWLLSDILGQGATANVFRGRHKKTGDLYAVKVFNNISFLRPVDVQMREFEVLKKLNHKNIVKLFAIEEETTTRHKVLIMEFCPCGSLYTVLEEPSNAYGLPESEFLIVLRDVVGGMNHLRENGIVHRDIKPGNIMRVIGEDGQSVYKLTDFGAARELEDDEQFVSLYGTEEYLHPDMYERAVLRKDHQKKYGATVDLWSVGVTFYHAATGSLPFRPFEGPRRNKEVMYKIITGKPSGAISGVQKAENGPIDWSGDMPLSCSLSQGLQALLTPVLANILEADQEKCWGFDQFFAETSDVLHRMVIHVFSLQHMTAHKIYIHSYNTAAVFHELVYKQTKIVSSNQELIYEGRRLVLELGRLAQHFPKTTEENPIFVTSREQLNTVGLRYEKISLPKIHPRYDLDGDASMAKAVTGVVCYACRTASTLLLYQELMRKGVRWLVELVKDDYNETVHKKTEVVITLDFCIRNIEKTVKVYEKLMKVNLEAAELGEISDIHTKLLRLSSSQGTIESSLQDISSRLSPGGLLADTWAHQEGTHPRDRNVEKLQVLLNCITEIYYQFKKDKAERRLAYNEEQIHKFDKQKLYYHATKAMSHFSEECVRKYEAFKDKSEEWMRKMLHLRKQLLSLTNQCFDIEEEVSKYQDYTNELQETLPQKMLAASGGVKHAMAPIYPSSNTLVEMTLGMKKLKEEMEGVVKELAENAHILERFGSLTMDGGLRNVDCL

No constants are given. Whether binding was seen depends on the method and setting. Binding seen in cells or lysates may run through a third protein. Some results given as binding are weak or reduced against the parent protein; the word gives no strength. Where a sequence is shown, tags or fusion partners need not be part of it.

Consider “V5-tagged Sintbad (from UniProt A2A9T0 1-611)”, for which the binding result was “no binding” in experiment [1], “no binding” in experiment [2] and “binds” in experiment [3].
With “V5-tagged NAP1 (from UniProt Q9QYP6 1-405)”, the binding entry is listed as “no binding” in experiment [1], “binds” in experiment [2] and “binds” in experiment [3].

B1: V5-tagged TANK (protein, UniProt P70347 1-448)
chain: MSLKRHSLRRNACHLETRAGIPTILYSDATGQRGMDKNIGEQLNRAYEAFRQACMDRDSAVRELQQKQTENYEQRIREQQEQLSFQQNLIDRLKSQLLLVDSSRDNSYGYVPLLEDSDRRKNNLTLDEPHDKVKLGTLRDKQSKVRRQEVSSGKESAKGLNIPLHHERDNIEKTFWDLKEEFHRICLLAKAQKDHLSKLNIPDIATDTQCSVPIQCTDKTEKQEALFKPQAKDDINRGMSCVTAVTPRGLGRDEEDTSFESLSKFNVKFPPMDNDSIFLHSTPEAPSILAPATPETVCQDRFNMEVRDNPGNFVKTEETLFEIQGIDPITSAIQNLKTTDKTNPSNLRATCLPAGDHNVFYVNTFPLQDPPDAPFPSLDSPGKAVRGPQQPFWKPFLNQDTDLVVPSDSDSELLKPLVCEFCQELFPPSITSRGDFLRHLNTHFNGET
Consider B1, for which the binding entry in experiment [1] and in experiment [2] was “no binding” in each case.
